In PMC4336329 (PLoS ONE, 2015):
Hit rate of the full screen: of about 310,000 compounds, about 2,200 (0.71%) showed an effect of 50% or more. The effect is printed as a negative number. This is one part of the list.

target: human ether-à-go-go-related gene (hERG) potassium channel (human, UniProt Q12809); assay: primary screen, population patch clamp on CHO cells stably expressing hERG
Sequence (Q12809 whole entry, looked up): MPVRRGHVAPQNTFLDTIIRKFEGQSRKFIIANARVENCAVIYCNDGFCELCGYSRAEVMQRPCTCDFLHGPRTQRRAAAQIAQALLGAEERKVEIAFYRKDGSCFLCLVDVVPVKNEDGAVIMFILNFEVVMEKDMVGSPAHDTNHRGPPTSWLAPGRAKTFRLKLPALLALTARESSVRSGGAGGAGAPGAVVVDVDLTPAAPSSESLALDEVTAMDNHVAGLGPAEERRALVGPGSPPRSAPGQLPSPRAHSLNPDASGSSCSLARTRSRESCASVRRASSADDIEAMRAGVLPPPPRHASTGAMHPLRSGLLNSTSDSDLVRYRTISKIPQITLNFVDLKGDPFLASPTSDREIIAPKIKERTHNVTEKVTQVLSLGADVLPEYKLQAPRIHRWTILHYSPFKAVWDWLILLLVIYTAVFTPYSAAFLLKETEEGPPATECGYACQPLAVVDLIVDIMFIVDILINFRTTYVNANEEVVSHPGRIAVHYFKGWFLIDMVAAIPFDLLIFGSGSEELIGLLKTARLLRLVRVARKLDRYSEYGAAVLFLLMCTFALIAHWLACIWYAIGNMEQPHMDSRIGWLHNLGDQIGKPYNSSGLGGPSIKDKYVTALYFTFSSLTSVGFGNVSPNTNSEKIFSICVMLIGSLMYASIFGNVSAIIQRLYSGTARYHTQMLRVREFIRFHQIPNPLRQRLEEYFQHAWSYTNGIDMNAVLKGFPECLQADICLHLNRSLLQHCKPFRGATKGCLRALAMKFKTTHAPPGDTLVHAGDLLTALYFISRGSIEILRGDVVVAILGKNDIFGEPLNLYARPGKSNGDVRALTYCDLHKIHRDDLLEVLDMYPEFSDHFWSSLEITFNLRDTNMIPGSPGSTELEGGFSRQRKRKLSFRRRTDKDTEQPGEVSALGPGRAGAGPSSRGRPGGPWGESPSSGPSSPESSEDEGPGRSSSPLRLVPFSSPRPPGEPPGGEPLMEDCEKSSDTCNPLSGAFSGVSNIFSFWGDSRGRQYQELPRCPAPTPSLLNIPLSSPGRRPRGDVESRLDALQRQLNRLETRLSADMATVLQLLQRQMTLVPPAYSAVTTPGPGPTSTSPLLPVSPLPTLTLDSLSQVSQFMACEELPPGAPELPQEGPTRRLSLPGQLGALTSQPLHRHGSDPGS

Compound	hERG current change (%, negative = inhibition) at 1uM [%]
O=CN(CCN(C=O)CN1CCCCC1)CN1CCCCC1	15.2
CC(=O)OC1COC(N2CCc3cc([N+](=O)[O-])ccc32)C(OC(C)=O)C1OC(C)=O (stereo not drawn)	10.1
COc1cc(OC)cc(-c2nnc(Nc3nc4c(F)cccc4s3)o2)c1	6.96
O=S(=O)(c1cccc2nonc12)N1CCN(c2cccc(Cl)c2)CC1	0.583
COc1cc(CC(=O)Nc2nc(-c3ccccc3)c(C(C)=O)s2)cc(OC)c1OC	15.9
COc1cccc(N(C(=O)CNC(=O)c2ccco2)C(C(=O)NC2CCCCC2)c2ccncc2)c1 (stereo not drawn)	2.43
C/C(=N\Nc1nc2ccccc2[nH]1)c1cc2ccccc2o1	4.97
COc1ccc(-c2cc(C(F)(F)F)nc(N3CCN(C)CC3)n2)cc1OC	-12.6
Cc1cccc(NC(=O)CSc2nnc(Cn3cnc4ccccc43)o2)c1	4.81
CC(=O)n1cc(C=C2C(=O)NC(=O)NC2=O)c2ccccc21	4.9
COC(=O)c1ccccc1NC(=O)c1ccc(COc2ccc(C)c(C)c2)o1	14.1
CCOC(=O)c1ccc(N/C=C/C(=O)c2ccc(OC)c(OC)c2)cc1	8.27
O=C(/C=C/c1cccc([N+](=O)[O-])c1)OCC(=O)c1ccccc1	0.958
O=C(COc1c(Cl)cc(Cl)cc1Cl)c1ccc(Cl)cc1	9.26
O=C1CN(CC(=O)Nc2ccc(SC(F)F)cc2)CCN1	-15.4
CN1CCN(c2ccc(NC(=O)c3cc(S(N)(=O)=O)ccc3N3CCOCC3)cc2)CC1	2.65
C#CCSc1nnc(C)c(C)n1	3.2
Cc1cc(C(=O)Nc2ccc3c(c2)CCC3)ccc1[N+](=O)[O-]	8.85
O=C1COc2ccc(C(=O)COC(=O)CNC(=O)c3ccccc3)cc2N1	7.37
Cc1ccc(C(=O)OCC(=O)Nc2ccc3[nH]c(=O)[nH]c3c2)o1	10.8
Cc1ccc(NC(=O)NCC(c2ccccc2)N(C)C)cc1 (stereo not drawn)	15
COc1ccc(-c2c(-c3cc(OC)cc(OC)c3)n(C)c3ccc(-c4ccc5[nH]ccc5c4)cc23)cc1	9.32
CS(=O)(=O)n1nc(-c2ccco2)nc1N	13.7

Compound	hERG current change (%, negative = inhibition) at 1uM [%]
CN1CCN(CCCNC(=O)c2ccc3c(=O)n(CCc4ccccc4)c(=O)[nH]c3c2)CC1	14.6
CN1CCN(Cc2ccc3ccccc3c2)CC1	19.5
COCc1c(Br)c(C)nc(OCC(=O)O)c1C#N	10.6
O=C(O)c1cccc(S(=O)(=O)N2CCCC(c3nc4c(nnn4Cc4ccc(F)cc4)c(=O)[nH]3)C2)c1 (stereo not drawn)	13.7
O=C(NCC1CCCCC1)C1CCN(C(=O)NC2CCCCC2)CC1	12.8
Nc1cc(C(=O)c2cccs2)ccc1Cl	1.79
O=C(O)c1ccc(N/N=C/c2ccc(-c3cccc(Cl)c3)o2)cc1	11.2
OCCNNC(=S)NC1CC2C=CC1C2 (stereo not drawn)	14
COc1ccc(C(=O)NCC(=O)N2CC=C(c3ccccc3)CC2)cc1OC	-4.07
Cc1ccccc1CN(C)C(C)C(=O)NCc1ccccc1 (stereo not drawn)	13.1
COCCn1c(SCC(=O)Nc2cccc(C)c2)nnc1C(C)C	9.74
COc1cccc(OCc2cc(C(=O)N3CCN(C)C(c4ccccc4)C3)no2)c1 (stereo not drawn)	8.08
Cc1ccc2c(c1)N(CC(=O)NCC1CCCO1)C(=O)C(C)O2 (stereo not drawn)	-0.627
Cc1cccc(CN2CCSCC2)c1	12.7
Cc1ccc(-n2nnnc2CNC(=O)c2ccc(Br)o2)cc1C	25.7
Cc1c(CCC(=O)NCCC(=O)O)c(=O)oc2cc3occ(-c4ccccc4)c3cc12	10.9
CCC1CCCCN1Cc1nc2c(c(=O)n(C)c(=O)n2C)n1Cc1cccc2ccccc12 (stereo not drawn)	11
O=C(CCc1ccccn1)N1CCCC(Nc2ccc(F)cc2)C1 (stereo not drawn)	1.84
Cc1cc(C(=O)O)cc(S(=O)(=O)NNC(=O)c2cccs2)c1C	11.4
Cc1ccc(C(=O)NC(=S)N2CC(C)OC(C)C2)cc1[N+](=O)[O-] (stereo not drawn)	16.5
COc1ccc(CC(=O)OCC(=O)NC(=O)Nc2ccccc2F)cc1	9.99
CCCNC(=O)C(Cc1cccc(Cl)c1)NC(=O)c1ccc(C#N)cc1 (stereo not drawn)	3.48
O=c1c2ccccc2ncn1-c1ccc([N+](=O)[O-])cc1[N+](=O)[O-]	6.59

Compound	hERG current change (%, negative = inhibition) at 1uM [%]
N#CC1(c2ccccc2)CCN(C2CC(=O)N(c3ccc4c(c3)OCO4)C2=O)CC1 (stereo not drawn)	15.3
O=C(NCCCCc1ccccc1)C1CC(c2ccc(C(F)(F)F)cc2)=NO1 (stereo not drawn)	0.396
CCOCCCNC(=O)C(c1ccccc1)N(Cc1cccs1)C(=O)CNC(C)=O (stereo not drawn)	3.43
Cc1nc2nc(SCc3ccc([N+](=O)[O-])cc3)[nH]c2cc1Br	9.16
O=C(CCCCN1CCCCC1)c1ccc2c(c1)Cc1ccccc1-2	-5.02
COc1ccccc1N1CCN(C(=O)CNC(=O)Cn2cnc3sc(C)c(C)c3c2=O)CC1	-9.87
O=c1[nH]c(=O)n(-c2cccc(Cl)c2)c(O)c1C=NCCN1CCCCC1	12.6
COc1cc2c(cc1NC(=O)C1CCCO1)oc1ccccc12 (stereo not drawn)	1.54
O=C(N/N=C/c1ccncc1)c1ccccc1OCc1ccc(Br)cc1	5.77
CCOC(=O)N1N=C(C)CC1(O)c1ccccc1 (stereo not drawn)	2.74
CC(C)NC(=O)c1cc2nc(-c3ccco3)cc(C(F)(F)F)n2n1	6.23
Cc1nc2cc(NC(=O)Nc3ccc(N4CCOCC4)cc3)ccc2n1C	11.8
COc1cccc(NC(=O)C(C)Sc2nnc(C3CC3)n2C2CC2)c1 (stereo not drawn)	-1.51
CCCNC(=O)[C@H](Cc1c[nH]c2ccccc12)NC(=O)c1ccccc1Cl	-5.53
Cc1ccc2nc(Cl)c(CN(C(=O)c3cnccn3)C3CCCCC3)cc2c1	-7.65
O=C(CSc1nc2ccccc2[nH]1)Nc1ccccc1F	6.04
COCCN1C(=O)NC(=O)/C(=C\c2ccc(F)cc2)C1=O	18.9
Cc1ccc(NC(=O)c2cccc(C(=O)OC(C)C)n2)c(Br)c1	-1.63
CCOC(=O)c1c(C)n(Cc2ccccc2)c2ccc(OCC(O)CN3C(=O)CNC3=O)cc12 (stereo not drawn)	9.17
Cc1cc(C)c(C(=O)Cn2nc(C(=O)O)c3ccccc3c2=O)cc1C	13.3
Cc1noc(NS(=O)(=O)c2ccc(NC(=O)COc3ccc(Cl)cc3Cl)cc2)c1C	-6.64
CCC(=O)Nc1ccc(S(=O)(=O)N2CCCCC2)cc1OC	-3.55
CC(=O)c1cn(C)c(=O)c2ccccc12	15.5

Compound	hERG current change (%, negative = inhibition) at 1uM [%]
CN(C)S(=O)(=O)c1ccc(C(=O)OCc2nnc(-c3ccccc3)o2)cc1	11.7
Cc1ccc(-n2[nH]c(=O)c(-c3ccccn3)c2C)cc1	10.2
Cc1nn(CC(=O)Nc2ccc(S(N)(=O)=O)cc2)c(=O)c2ccccc12	8.36
COC1=C(c2ccccc2)C(=O)c2ccccc2C1=O	4.18
c1ccc(-c2ccnc3ncnn23)nc1	10.2
CN(CC(=O)Nc1ccc(Cl)c(C(F)(F)F)c1)C(=O)CC1Sc2ccccc2NC1=O (stereo not drawn)	3.84
O=C1CC(c2ccccc2)Oc2cc(O)cc(O)c21 (stereo not drawn)	11.1
COc1cccc(-n2c(COc3ccc(C)cc3)nnc2SCC(N)=O)c1	9.18
Cc1ccc(CNC(=O)C2CC(c3ccccc3[N+](=O)[O-])=NO2)o1 (stereo not drawn)	16.2
CC1(C)C(C=C(Cl)Cl)C1C(=O)NC(O)C(=O)c1ccccc1 (stereo not drawn)	15.6
Cc1ccc(/C=N/NC(=S)NC2CCS(=O)(=O)C2)cc1 (stereo not drawn)	9.41
C/C(=N\Nc1nccnc1Cl)c1ccc(O)cc1	20.2
CCOc1cc(CNCC2CCCN2CC)cc(Cl)c1OC.Cl (stereo not drawn)	6.02
COc1ccc(Cl)cc1NC(=O)CN(C)C(=O)c1cc(C)oc1C	-0.865
O=c1oc(-c2cccc([N+](=O)[O-])c2)nc2ccccc12	14.4
COc1ccc2nc(N=Nc3ccc(O)c4ccccc34)sc2c1	-0.728
CC(c1ccco1)N(C(=O)Nc1ccc(Cl)cc1)c1ccccn1 (stereo not drawn)	5
C/C(N)=C(/C#N)C(=O)COC(=O)CCSc1ccccc1Cl	12.1
CCOc1ccc(S(=O)(=O)N(C)CC(=O)NC2CCCC2)cc1	2.85
COCC(C)NC(=S)NC(=O)c1cc(S(=O)(=O)N2CCOCC2)ccc1C (stereo not drawn)	11.3
CC(OC(=O)/C=C/c1cccs1)C(=O)Nc1ccc(C(N)=O)cc1 (stereo not drawn)	7.57
